The list shows a part of the results. Values were computed here from the reads of four pooled replicates and scatter widely.
Biological target: T1, Pho4 (S. cerevisiae) (UniProt P07270)
T1 sequence: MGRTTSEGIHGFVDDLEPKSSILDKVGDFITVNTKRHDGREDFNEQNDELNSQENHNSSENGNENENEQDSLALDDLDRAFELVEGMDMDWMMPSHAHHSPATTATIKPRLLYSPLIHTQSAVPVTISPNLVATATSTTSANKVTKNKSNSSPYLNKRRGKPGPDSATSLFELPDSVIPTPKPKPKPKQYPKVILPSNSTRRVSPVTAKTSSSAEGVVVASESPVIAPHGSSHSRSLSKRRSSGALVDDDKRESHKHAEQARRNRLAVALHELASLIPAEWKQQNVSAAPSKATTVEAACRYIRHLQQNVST
Experiment: relative binding free energy (BET-seq); higher = weaker binding
Details: reference: library average

Row | Sequence | relative binding free energy [kcal/mol]
1 | ATGCTCACGTGCGGTT | 0.17
2 | AGGAACACGTGGATGA | 0.13
3 | TTATGCACGTGGCTTA | -0.19
4 | AGAGGCACGTGGTCAA | -0.1
5 | ATTTACACGTGGGGGA | -0.01
6 | CTGGTCACGTGATAAG | 0.15
7 | GTTAGCACGTGTTTGC | -0.01
8 | TTGATCACGTGTGGAA | 0.32
9 | ATCGGCACGTGGAATT | 0.13
10 | ATTGCCACGTGGGGCG | -0.32
11 | TTATACACGTGGCGGA | 0.08
12 | GTGCGCACGTGTTGCT | -0.09
13 | AATTACACGTGTGATA | 0.24
14 | GTTGCCACGTGCAGGG | -0.2
15 | CTGCGCACGTGGGGTG | -0.35
16 | CGTAACACGTGGGGTT | -0.16
17 | CAGTGCACGTGAGGAT | 0.13
18 | TTCAACACGTGGTGTA | -0.1
19 | TGAATCACGTGGAAGT | 0.22
20 | GGGGGCACGTGTCTAG | -0.11
21 | CGGTCCACGTGTATTG | 0.06
22 | GGGTTCACGTGTGAGT | 0.39
23 | CGGAGCACGTGGTGGT | -0.02

Row | Sequence | relative binding free energy [kcal/mol]
24 | GTGCTCACGTGGTGTT | 0.1
25 | GTTTTCACGTGTGCAG | 0.31
26 | TCATTCACGTGTTTTA | 0.14
27 | AGCTTCACGTGGATGG | 0.28
28 | AAGTTCACGTGATATA | 0.39
29 | TAAGTCACGTGGGTCA | 0.03
30 | TGTAGCACGTGAAAGG | 0.15
31 | TTTGCCACGTGCAGGG | -0.13
32 | TGCATCACGTGGATGT | -0.07
33 | CTGGGCACGTGGGCGG | -0.21
34 | TTGGGCACGTGAGCAA | 0
35 | GTTTTCACGTGATAAA | 0.34
36 | AAAGGCACGTGCTGGA | -0.14
37 | AACGTCACGTGAGTGT | 0.2
38 | TGTAACACGTGGGTAA | -0.13
39 | TTTTTCACGTGAGGCA | 0.34
40 | TTCGGCACGTGCGTAT | -0.19
41 | TCTTACACGTGGGTGC | 0.03
42 | AGGTTCACGTGGTTAG | 0.39
43 | ATACGCACGTGATGTG | 0.01
44 | GGAGTCACGTGAAGGA | 0.39
45 | TTAAGCACGTGCGAGT | -0.05
46 | ATGTTCACGTGATGGG | 0.3

Row | Sequence | relative binding free energy [kcal/mol]
47 | CGTTGCACGTGTGGGA | 0.1
48 | CGTGGCACGTGTGTTG | -0.04
49 | GTGGTCACGTGTACTT | 0.29
50 | GGGCGCACGTGCTGGC | -0.13
51 | GTTTGCACGTGGTCTT | -0.01
52 | GTTCACACGTGGAGTG | -0.04
53 | TATATCACGTGGAGCG | 0.22
54 | GGAAACACGTGGTGCG | -0.1
55 | TGATCCACGTGGTAAG | 0.21
56 | AGGCCCACGTGGTGTG | -0.35
57 | ATGCTCACGTGGAGTT | 0.22
58 | TGGTTCACGTGGCTTG | 0.22
59 | TGGAACACGTGTTCAG | 0.1
60 | ATTTGCACGTGAGGAA | 0.3
61 | GGTTCCACGTGGAAGG | 0.12
62 | AATTGCACGTGCGGAT | 0.03
63 | TTTCACACGTGGGTAG | -0.11
64 | GGGCTCACGTGAATGG | 0.3
65 | GGAGACACGTGGTGGT | -0.06
66 | GGCAGCACGTGTTATG | 0.06
67 | GTGCTCACGTGTATTG | 0.17
68 | ATTATCACGTGGATGT | 0.09
69 | GTGCGCACGTGGGTGC | -0.18

Row | Sequence | relative binding free energy [kcal/mol]
70 | AGAGTCACGTGAAATG | 0.52
71 | GTTTTCACGTGAGCGC | 0.61
72 | CATAGCACGTGTGGGC | 0.02
73 | TATGGCACGTGCAGTT | -0.19
74 | TTCGGCACGTGTGGCT | 0.01
75 | GCTTACACGTGAGTGT | 0.22
76 | TTTTGCACGTGTGATG | 0
77 | GTGGACACGTGAGTTC | 0.24
78 | AATCGCACGTGAGTTG | 0.17
79 | TGTAGCACGTGAGGGG | 0.19
80 | TTACTCACGTGTGGTT | 0.19
81 | CTGGACACGTGTTGTT | -0.03
82 | TTGTCCACGTGATATT | 0.17
83 | GGCTACACGTGTTGAT | 0.18
84 | TTTATCACGTGGTGCG | 0.08
85 | TGCGTCACGTGTATGA | 0.04
86 | GGCTTCACGTGATAGT | 0.39
87 | GTATACACGTGGTGTT | 0.03
88 | GGAGTCACGTGGGATA | 0.01
89 | GGGGGCACGTGATATA | 0.01
90 | GAAGGCACGTGTAGGT | -0.11
91 | GTTGTCACGTGGCGGC | 0.08
92 | GTACACACGTGTATGG | 0.07

Row | Sequence | relative binding free energy [kcal/mol]
93 | TTCTACACGTGGGATA | 0
94 | ATTATCACGTGTCGTG | 0.09
95 | AAGTGCACGTGACAGG | 0.12
96 | GGTGCCACGTGTGAGA | 0.09
97 | GGATCCACGTGGTGAT | 0.07
98 | TATATCACGTGTAAAG | 0.13
99 | CTCGTCACGTGGTATT | 0.02
100 | GGTGCCACGTGGAATG | 0.05
101 | TGGGTCACGTGGTTAG | 0.08
102 | TGCTGCACGTGGAAGT | 0.07
103 | GAGATCACGTGTAGAG | 0.27
104 | AGCAGCACGTGGTCTT | -0.01
105 | TAGGCCACGTGTTGTG | -0.17
106 | GTAGACACGTGTGGGG | 0.19
107 | CGGATCACGTGTTGTG | 0.15
108 | AGGGTCACGTGGTGAG | 0.12
109 | AATTGCACGTGTGCAG | 0.08
110 | AAAGGCACGTGATGTG | -0.04
111 | ATTTGCACGTGCGCGG | -0.11
112 | AGGTACACGTGGATTG | 0.01
113 | CAGTTCACGTGGGGTA | 0.06
114 | TATGTCACGTGTTTTC | 0.16
115 | TTGGACACGTGTACGA | 0.22
